In all, about 33,000 sequences were measured (“E-score (-0.5 to 0.5)”: median about -0.032, highest 2% from about 0.36 on). Some of the results follow.
Biological target: T1, Sko1 (UniProt Q02100)
T1 sequence: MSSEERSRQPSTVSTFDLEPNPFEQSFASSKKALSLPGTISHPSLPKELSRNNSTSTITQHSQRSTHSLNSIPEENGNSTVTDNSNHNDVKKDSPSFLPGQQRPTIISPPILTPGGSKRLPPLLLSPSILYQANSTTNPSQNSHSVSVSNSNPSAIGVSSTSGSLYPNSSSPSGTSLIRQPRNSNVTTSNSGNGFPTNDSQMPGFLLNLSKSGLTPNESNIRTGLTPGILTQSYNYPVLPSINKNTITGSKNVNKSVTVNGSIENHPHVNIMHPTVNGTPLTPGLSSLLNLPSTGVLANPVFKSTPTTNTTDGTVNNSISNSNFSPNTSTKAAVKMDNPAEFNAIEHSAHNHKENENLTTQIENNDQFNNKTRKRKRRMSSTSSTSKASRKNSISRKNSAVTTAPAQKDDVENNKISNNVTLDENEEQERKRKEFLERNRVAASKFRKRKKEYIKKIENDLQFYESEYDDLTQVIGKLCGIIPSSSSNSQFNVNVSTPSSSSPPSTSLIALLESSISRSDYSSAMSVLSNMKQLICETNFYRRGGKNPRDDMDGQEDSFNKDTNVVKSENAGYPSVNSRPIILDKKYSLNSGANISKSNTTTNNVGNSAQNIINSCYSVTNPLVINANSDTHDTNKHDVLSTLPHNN
Assay: PBM E-score (8-mer binding enrichment) (E-score (-0.5 to 0.5)); higher = stronger / more preferred TF binding; most listed sequences are background and not binding sites
Conditions: protein concentration: 200 nM; construct: GST-full length
Procedure: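 Universal 'all 10-mer' protein binding microarrays (Agilent AMADID 015681) probed with GST-tagged S. cerevisiae TFs (full-length or DBD) made by in vitro transcription/translation (PURExpress), about 100-200 nM. Bound TF was detected with fluorescent anti-GST. Each ungapped 8-mer (which stands for itself and its reverse complement) is scored by the PBM enrichment score (E-score), a modified Wilcoxon-Mann-Whitney statistic from -0.5 to +0.5, computed with the Universal PBM Analysis Suite. Scale: above 0.35 generally sequence-specific binding.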

Sequence	PBM E-score
ACAGCCTG	-0.138
CATGATGG	-0.122
AGGTAGCC	-0.298
GAAGCAGC	-0.314
CATATTGC	0.0177
CATCGGCC	-0.156
AAGTAGTG	-0.0308
ATTGTTGA	0.204
ATAACACA	0.214
ATGCAAGC	0.0965
AGTTAGAC	-0.0303
ATAGATCA	0.193
GGTAGCAA	-0.06
TATCTAGA	-0.0188
AGTCAGAA	-0.0299
CTGGCAAC	-0.23
CCTATCGC	-0.223
ATACCTCG	-0.108
AAGCGGGC	-0.335
AGACGGCA	-0.143
ATGGCGCC	-0.219
AATCGCGA	0.00152
CCGATCCG	-0.19
TATGTCAA	0.327
CCATAAGC	-0.186

Sequence	PBM E-score
AAGTCGCA	0.0692
GGCAAGGA	-0.167
CAGCACTG	-0.114
AAGAGAGC	-0.264
CCGGTAAA	-0.0691
ATAGATAA	0.0957
ACTCGACC	-0.391
CACTGTAG	0.148
GCCACAAC	0.0215
CCACAGGC	-0.295
AGAGCGCC	-0.206
AGTACCGA	-0.168
ACGAGCCA	0.0552
GATTGACC	-0.0934
AGCCATCG	-0.0786
GACTGATC	-0.0259
AAGCCCGC	-0.124
AGTCTAAT	0.144
GATTGACA	0.146
AGGGTCTG	-0.348
AGACATTC	0.0613
CCAAAGAA	0.0437
CAGACCAG	-0.132
CCTGTGCA	-0.175
ATAACTTA	0.168

Sequence	PBM E-score
GAGTTGTA	0.0312
CCCCGCCG	-0.311
AGTGGAAT	0.0217
CGACTGAG	-0.15
CATTAACA	0.147
CCTAACGC	0.0788
CATCAGTA	0.137
AGCTGAAT	-0.0471
AACCGAGG	-0.314
CGTTCCTC	-0.101
CACTGTTA	-0.117
ACCGCTGC	-0.353
CATTGTAA	0.0854
AACCGCAG	-0.293
CATCATGA	0.339
ACGACTCC	-0.0992
ACAGCTGC	-0.191
ATAACCTG	-0.0605
ATGATTGA	0.158
ACCACACA	0.0483
CTGACCTA	0.103
GGAGGGCC	-0.22
ATATGGTC	0.136
CCACGCAC	0.153
CTCGCTTA	-0.13

Sequence	PBM E-score
ATCTGCCA	-0.0682
AAATTGTT	0.0907
TGACAACA	0.26
ACTAGGCC	-0.352
AGAGGTGG	-0.133
AGTAAAGG	0.0536
CACGCGAG	0.0242
GAGCAGAC	-0.0861
CACATGCC	-0.0143
CTTGGGGA	-0.164
ACTCGCAT	0.15
CCGTAAGG	-0.15
GTTAGATA	0.147
GGAACCTA	-0.111
CGCCTACG	0.178
ACTGAATG	0.0356
ATGAACGA	0.204
TGACCAAA	0.0718
AATAATCT	0.125
ATTAGGCG	0.128
ATGACATC	0.44
CCCTAGGG	-0.314
CACCTCAA	-0.00438
TTCAGGAA	0.00982
CTTGCCAA	-0.00384

Sequence	PBM E-score
AAAGACCA	-0.183
GGTGACGA	0.422
CAGCTCCC	-0.212
GAACCTCC	-0.255
ATTAAACA	0.0803
AATATCTA	0.0627
CATCGATA	0.0761
CGCCGACG	-0.0533
ACACCCCC	-0.319
GGCGCCAC	-0.138
CAGCTTCC	-0.133
GTGGGAAC	-0.143
AAAGTAAG	0.0864
CATCGGGC	-0.0815
TGGATACA	-0.00217
GCCAGCAA	-0.205
CCCGTTGA	-0.034
GGCGGACC	-0.321
CTAAACAC	0.195
ACGACTAA	-0.0201
CACCTCAG	-0.162
CGTGAGGC	-0.0837
CAAGGCCA	-0.265
AGGGATCG	-0.177
ACCGCCCT	-0.195

Sequence	PBM E-score
CAGATTGC	0.0869
GGCGGGAA	-0.257
CTCATCCC	-0.204
ACGACTAT	0.252
ATTTAGTC	0.127
GCCAACTA	-0.112
CGAAAAGC	-0.121
CCCGTGTC	-0.291
CAGAGGAA	-0.229
TGTCGTAA	0.412
CCATTCGC	-0.158
TCCAAGCA	-0.0718
CACGGTCG	-0.255
TCTAGGCA	-0.147
CTGTCTAA	-0.00363
GATTCCGC	0.0394
CGGTACCG	0.0309
ACGGTGGG	-0.192
ATCGTAAC	0.241
GGCTTTTA	-0.137
CGCGAGGA	-0.246
ACTTGTAA	0.0218
AAATAAGC	0.0995
GCTGGTCC	-0.219
AATATGTC	0.265

Sequence	PBM E-score
CGTGGGCC	-0.024
AGCAAAAT	0.13
CTGGACGA	-0.179
CGGAACAA	0.0631
AAAACGGC	-0.0452
AGTCGGTC	-0.308
CGGTCTTA	-0.159
AATGTTAC	0.143
AGCTTCTC	-0.203
GTCACGAA	0.27
CGGACAAA	0.0463
CACATACC	0.0146
GGTGGCGA	-0.0685
GAACTTAC	0.165
CGATGTGA	0.00099
ATACCTGG	-0.252
CAGTGAGA	0.0132
CGAAGACG	0.00277
AACGTTGT	0.268
TCCAAACA	-0.0521
GACAAGAC	-0.113
CGCTTTTC	-0.12
